Measured values from a collection of fitness landscapes (doi:10.1126/science.1257360).
This is one part of the list.

B1: PhoQ; a variant is named by its letters at X, in order, P23837 (parent)
chain: MKKLLRLFFPLSLRVRFLLATAAVVLVLSLAYGMVALIGYSVSFDKTTFRLLRGESNLFYTLAKWENNKLHVELPENIDKQSPTMTLIYDENGQLLWAQRDVPWLMKMIQPDWLKSNGFHEIEADVNDTSLLLSGDHSIQQQLQEVREDDDDAEMTHSVAVNVYPATSRMPKLTIVVVDTIPVELKSSYMVWSWFIYVLSANLLLVIPLLWVAAWWSLRPIEALAKEVRELEEHNRELLNPATTRELTSLVRNLNRLLKSERERYDKYRTTLTDLTHSLKTPLXXLQXXLRSLRSEKMSVSDAEPVMLEQISRISQQIGYYLHRASMRGGTLLSRELHPVAPLLDNLTSALNKVYQRKGVNISLDISPEISFVGEQNDFVEVMGNVLDNACKYCLEFVEISARQTDEHLYIVVEDDGPGIPLSKREVIFDRGQRVDTLRPGQGVGLAVAREITEQYEGKIVAGESMLGGARMEVIFGRQHSAPKDE

Variants of: B1
Test: enrichment ratio after two sorts for PhoP signalling (ratio (wild type AVST 3.29)); higher = more functional
Conditions: with PhoP (E. coli)

Variant	enrichment ratio
GENM	≤ 0.25
IDCV	≤ 0.25
IFKR	≤ 0.25
RLHP	≤ 0.25
PTGV	≤ 0.25
IYCP	≤ 0.25
VHKN	≤ 0.25
DTIM	≤ 0.25
SVDI	≤ 0.25
NMDV	≤ 0.25
QQNQ	≤ 0.25
TRMC	2.53
MPMA	≤ 0.25
NWAP	≤ 0.25
RRLN	≤ 0.25
NLAA	≤ 0.25
NYNL	≤ 0.25
HIRI	≤ 0.25
DLEE	≤ 0.25
QHSM	2.52
LRIF	≤ 0.25
GQMC	≤ 0.25
KDGP	≤ 0.25
GIPA	≤ 0.25
WVMI	≤ 0.25

Variant	enrichment ratio
YIQP	≤ 0.25
PDDN	≤ 0.25
APFA	≤ 0.25
DSPE	≤ 0.25
HLMV	≤ 0.25
LLKL	≤ 0.25
IPCQ	≤ 0.25
NDFY	≤ 0.25
RIWF	≤ 0.25
MGPH	≤ 0.25
QRGH	≤ 0.25
TGYH	1.03
PCSL	≤ 0.25
VSSY	≤ 0.25
PYLM	≤ 0.25
GNGQ	≤ 0.25
PLMC	≤ 0.25
GEPV	≤ 0.25
FFKG	≤ 0.25
QVFC	≤ 0.25
EGAH	≤ 0.25
DCGP	≤ 0.25
EYFK	≤ 0.25
GSKY	≤ 0.25
KPFC	≤ 0.25

Variant	enrichment ratio
EANY	≤ 0.25
DQEI	≤ 0.25
REKH	≤ 0.25
VSNQ	≤ 0.25
DKTT	≤ 0.25
KLPK	≤ 0.25
TEAN	29.6
ILLL	≤ 0.25
EPGL	≤ 0.25
KAGC	≤ 0.25
SQQG	6.66
EHPF	≤ 0.25
PTTW	≤ 0.25
DSHV	≤ 0.25
HNPQ	≤ 0.25
VDVF	≤ 0.25
YPKE	≤ 0.25
FRIN	≤ 0.25
ISLA	≤ 0.25
PLYK	≤ 0.25
SSHK	≤ 0.25
YPRV	≤ 0.25
LYYG	≤ 0.25
HYHY	≤ 0.25
PNEH	≤ 0.25

Variant	enrichment ratio
NIKD	≤ 0.25
TFSV	6.01
QIGA	≤ 0.25
SECM	38.2
HWLE	≤ 0.25
IYRQ	≤ 0.25
HEMN	≤ 0.25
TTEA	≤ 0.25
KQTV	≤ 0.25
KSMW	≤ 0.25
QCTW	≤ 0.25
QADN	≤ 0.25
YMRR	≤ 0.25
IKMK	≤ 0.25
IDTH	≤ 0.25
PKRY	≤ 0.25
VRVH	≤ 0.25
LGCG	≤ 0.25
RAWG	≤ 0.25
KYHL	≤ 0.25
EYAE	≤ 0.25
GSTE	≤ 0.25
QLPK	≤ 0.25
AELQ	7.37
WKSA	≤ 0.25

Variant	enrichment ratio
YMPM	≤ 0.25
QYTT	≤ 0.25
TRWS	≤ 0.25
SDGK	≤ 0.25
WKFW	≤ 0.25
TTLG	10.6
WKFN	≤ 0.25
CLTF	7.98
WDSA	≤ 0.25
EKPW	≤ 0.25
MDLF	≤ 0.25
HDIR	≤ 0.25
GMDC	≤ 0.25
DPTD	≤ 0.25
RYRW	≤ 0.25
YPDT	≤ 0.25
LPQG	≤ 0.25
DLSA	≤ 0.25
LTLL	3.06
IWPR	≤ 0.25
TTMS	26.8
QGAY	≤ 0.25
SKIT	2.38
GGKQ	≤ 0.25
PWDL	≤ 0.25

Variant	enrichment ratio
RGWK	≤ 0.25
TCTW	10.8
LGCM	≤ 0.25
KADF	≤ 0.25
AQQN	≤ 0.25
QVRS	≤ 0.25
WFDM	≤ 0.25
WTKD	≤ 0.25
YKMD	≤ 0.25
DFSA	≤ 0.25
QDKI	≤ 0.25
HTGR	≤ 0.25
SRPA	≤ 0.25
PHYR	≤ 0.25
DFYR	≤ 0.25
RDLD	≤ 0.25
VSHC	≤ 0.25
PCPL	≤ 0.25
YTPW	≤ 0.25
PEIL	0.746
EQAT	≤ 0.25
QSCY	≤ 0.25
YHID	≤ 0.25
NTKQ	≤ 0.25
LYVA	≤ 0.25

Variant	enrichment ratio
YWPH	≤ 0.25
LTYH	≤ 0.25
GMHS	≤ 0.25
MPDD	≤ 0.25
DTRS	≤ 0.25
ANMI	26.5
GDNT	≤ 0.25
IQMC	≤ 0.25
IKGY	≤ 0.25
ATSW	1.32
PTNC	≤ 0.25
NHDV	≤ 0.25
WGVK	≤ 0.25
NPPE	≤ 0.25
ATSQ	11.6
IWYW	≤ 0.25
MFLF	≤ 0.25
QIIF	≤ 0.25
HLPG	≤ 0.25
GNGV	≤ 0.25
EQAS	≤ 0.25
CFLP	≤ 0.25
TAFQ	5.49
QWLG	≤ 0.25
FFHY	≤ 0.25

Variant	enrichment ratio
MKLR	≤ 0.25
FQHS	≤ 0.25
SKPW	≤ 0.25
RIWK	≤ 0.25
VTGC	≤ 0.25
ITCE	≤ 0.25
ARLN	≤ 0.25
RHYF	≤ 0.25
QMSQ	≤ 0.25
LDTV	0.316
IHWV	≤ 0.25
RFWE	≤ 0.25
ATAT	≤ 0.25
YLCL	0.521
TILM	≤ 0.25
IWTG	≤ 0.25
NDCQ	≤ 0.25
FNYR	≤ 0.25
EGDF	≤ 0.25
VAVC	≤ 0.25
